Measured values from PubChem BioAssay AID588855 (National Center for Advancing Translational Sciences (NCATS), 2011).
About 5,000 (1.2%) of roughly 410,000 compounds were called active. Inconclusive means that the source gave no clear call. Such entries were picked first, then a sample of the others. The call rests on the fitted dose curve; in most records, active means well fitted inhibition curve with a large enough effect; inconclusive means small, poorly fitted or top-dose-only effect; inactive means no such curve, though single readings can be large or run the other way. A potency beside an inconclusive call is a rough fit, not a confirmed value.
Potency means the concentration at half of the fitted maximal effect; tags describe the fitted curve by direction and shape.

Test: qHTS for Inhibitors of TGF-b; further: nearly all actives have a fitted effect of over 65% in size
Conditions: HepG2 CAGA-GFP TGF-b/SMAD3 reporter, GFP fluorescence, 18 h, TGF-beta stimulated, 500 pg/mL final; series mostly up to 46.1 µM
Outline: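 Per well, imaged GFP fluorescence of HEPG2 CAGA-GFP cells gives the signal; cells get compound, then TGF-beta (500 pg/mL final), 18 h at 37 degrees C; %Activity versus -TGF-beta and +DMSO controls.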
In the case of `CC(C)=CCC/C(C)=C/CNC(=O)CC1C[C@H](C(=O)N2CCOCC2)[C@@]2(C)c3[nH]c4ccccc4c3CCN2C1=O` (some centres not stated), the Potency was inconclusive: 17.8 µM [inhibitor, single point]. With `COc1ccc(NC(=O)C2CCC(CNS(=O)(=O)c3ccc(Br)s3)CC2)c(OC)c1` (configuration not stated) the Potency was inconclusive: 35.5 µM [inhibitor, single point]. With `CCOC(=O)Cc1csc(NC(=O)Nc2ccccc2)n1` the Potency was inconclusive: 14.1 µM [inhibitor, single point]. In the case of `CN(C)CCNC(=O)/C(=C/c1ccc(-c2cccc([N+](=O)[O-])c2)o1)NC(=O)c1ccccc1`, the Potency was “inactive”. For `COc1ccccc1NC(=O)COC(=O)COc1cccc2c1OC(C)(C)C2`, the Potency was “inactive”. For `COc1ccc(CCNS(=O)(=O)c2ccc(N3CCCCS3(=O)=O)cc2)cc1`, the Potency was inconclusive: 35.5 µM [inhibitor, single point]. For `COC(=O)Cn1c(=O)c2c(n(Cc3ccccc3)c1=O)N/C(=C/c1ccc(Br)cc1)C2=O`, the Potency was inconclusive: 20 µM [inhibitor, single point]. In the case of `C/C(Cn1nnc([N+](=O)[O-])n1)=N\NC(=O)c1ccc(Cl)c(Cl)c1`, the Potency was active: 10 µM. In the case of `NNc1nc2ccc(Cl)cc2s1`, the Potency was inconclusive: 35.5 µM [inhibitor, single point]. In the case of `COc1cc(C(=O)c2ccc3c(c2)OCO3)cc(OC)c1OC`, the Potency was “inactive”. For `O=C1CCC[C@@H]2C[C@@]3(C[C@@H]4CCN1[C@H]24)Nc1ccccc1NC3=NC1CCCCC1`, the Potency was inconclusive: 6.31 µM [inhibitor, full curve]. For `COc1ccc(Nc2nc(N)nc(CSC(=S)N3CCN(C)CC3)n2)cc1`, the Potency was “inactive”. With `Cc1ccn2c(NC3CCCCC3)c(-c3cccc(SC4CCCCC4)c3)nc2c1` the Potency was inconclusive: 35.5 µM [inhibitor, single point]. For `O=c1c2cc(N3CCOCC3)ccc2[nH]c(=S)n1Cc1ccccn1`, the Potency was “inactive”. For `Fc1ccc(C(CCCn2nnc(-c3cccnc3)n2)c2ccc(F)cc2)cc1`, the Potency was inconclusive: 20 µM [inhibitor, single point]. With `Oc1ccc(CNc2ccccc2)c2cccnc12` the Potency was inconclusive: 10 µM [inhibitor, partial curve, poor fit]. In the case of `Cc1ccc(C)c(NC(=O)c2nnn(Cc3ccc(F)cc3Cl)c2N)c1`, the Potency was inconclusive: 35.5 µM [inhibitor, single point]. With `CCCCNc1ccc(C(CC(N)=O)NC(=O)c2ccccc2)cc1[N+](=O)[O-]` (configuration not stated) the Potency was inconclusive: 14.1 µM [inhibitor, single point]. In the case of `COc1cccc(-c2nnc3n2N=C(C(C)(C)C)CS3)c1`, the Potency was inconclusive: 5.01 µM [inhibitor, full curve, poor fit]. In the case of `COc1ccc(OC)c(CCNC(=O)Cn2nc(C)n3c(cc4sccc43)c2=O)c1`, the Potency was inconclusive: 3.16 µM [inhibitor, partial curve, poor fit]. For `O=C(Nc1nnc(-c2ccccc2)o1)C1CCCCC1`, the Potency was “inactive”. For `O=C(NNc1ccccn1)C(c1ccccc1)c1ccccc1`, the Potency was “inactive”. In the case of `Cc1nc(-c2cccc(S(=O)(=O)N3CCC(C(=O)NCc4ccccc4Cl)CC3)c2)no1`, the Potency was inconclusive: 35.5 µM [inhibitor, single point]. For `S=C(N/N=C/c1ccc2ncccc2c1)Nc1ccccc1`, the Potency was inconclusive: 3.55 µM [inhibitor, single point]. In the case of `COc1cc(CNc2ccc(N3CCCC3)cc2)cc(Cl)c1OC`, the Potency was inconclusive: 10 µM [inhibitor, partial curve, poor fit]. For `Cc1cc(C(=O)N(C2CCCCC2)C2CCCCC2)no1`, the Potency was inconclusive: 35.5 µM [inhibitor, single point]. In the case of `Clc1ccccc1CN1CCc2nc(N3CCN(c4ncccn4)CC3)ncc2C1`, the Potency was inconclusive: 35.5 µM [inhibitor, single point]. With `S=C(NCc1ccccc1)N1CCN(C2CCCCC2)CC1` the Potency was inconclusive: 20 µM [inhibitor, partial curve, poor fit]. With `O=C(Nc1ccc(F)cc1)c1cc2cc3ccc(Cl)cc3nc2o1` the Potency was inconclusive: 7.08 µM [inhibitor, partial curve, poor fit]. For `CC1CCc2nc(NC(=O)CN3CCN(Cc4ccc5c(c4)OCO5)CC3)sc2C1` (configuration not stated), the Potency was inconclusive: 25.1 µM [inhibitor, single point]. For `Cc1ccccc1CNCc1c(C(=O)O)c(C)n(Cc2ccc(F)cc2Cl)c1C`, the Potency was inconclusive: 35.5 µM [inhibitor, single point]. In the case of `Nc1nc(Nc2cccc(C(F)(F)F)c2)nc(C(F)(F)F)n1`, the Potency was inconclusive: 35.5 µM [inhibitor, single point]. In the case of `Cc1ccc2nc(C)c3c(c2c1)N(c1ccccc1)CC3`, the Potency was inconclusive: 35.5 µM [inhibitor, single point]. With `COc1ccc(NC(=O)Cn2c(=O)n(Cc3ccco3)c(=O)c3oc4ccccc4c32)cc1Cl` the Potency was inconclusive: 3.55 µM [inhibitor, full curve, poor fit]. For `CCc1nc2c(OCCC3CCCCC3)cccn2c1N(C)C(=O)c1ccccc1F`, the Potency was inconclusive: 3.55 µM [inhibitor, full curve, poor fit]. For `CCCCN(CC)Cc1ccc(CNC(=O)Nc2ccc(F)cc2)o1`, the Potency was inconclusive: 10 µM [inhibitor, partial curve]. For `COc1ccc(OC)c(NC(=O)Nc2ccc(Cl)cc2)c1`, the Potency was inconclusive: 35.5 µM [inhibitor, single point]. With `COc1cccc(NC(=O)CSc2nc3c(sc4ccccc43)c(=O)n2CCCN2CCCC2)c1` the Potency was inconclusive: 35.5 µM [inhibitor, single point]. With `COc1ccc(NC(=O)N2c3ccc(OC)cc3C(C)=CC2(C)C)cc1` the Potency was inconclusive: 14.1 µM [inhibitor, partial curve, poor fit]. With `CC1(C)CC(=O)C2=C(C1)Nc1ccccc1NC2c1cc(Cl)ccc1O` (configuration not stated) the Potency was “inactive”. For `O=c1[nH][nH]c(=O)c2c1[nH]c(=S)n2Cc1ccccc1`, the Potency was “inactive”. With `COc1cc(OC)cc(-c2c(-c3cccs3)c3cc(-c4ccn[nH]4)ccc3n2C)c1` the Potency was active: 15.8 µM.
